Laboratory results as given in the supplement of paper PMC9446081.
In all, about 39,000 compounds went through this assay and about 220 (0.56%) showed activity. The list shows a part of the results.

What follows are molecules tested on Escherichia coli K-12 BW25113 (assay: relative growth (OD600 normalised to plate interquartile mean) (fraction); higher = less growth inhibition, active = 0.2 or less). Conditions: 50 µM; LB; incubation time: overnight (16-24 h).
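Also: static incubation at 37 °C against the wild-type strain, values averaged over two biological replicates.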

| SMILES | relative growth |
| --- | --- |
| COc1ccc2c3c(n(c2c1)C)[C@@H](CO)N(Cc1ccccc1F)C[C@]13CN(C1)C(=O)C1CCOCC1 | inactive: 0.994 |
| Cc1ccc(-c2ccc3c(c2)O[C@H](CN(C)C(=O)Nc2ccc(C(F)(F)F)cc2)[C@H](C)CN([C@@H](C)CO)S3(=O)=O)cc1 | inactive: 1.02 |
| O=C(C[C@H]1CC[C@@H]2[C@H](COC[C@@H](O)CN2Cc2ccccc2F)O1)N[C@H]1CCN(Cc2ccccc2)C1 | inactive: 0.997 |
| C[C@@H]1CN([C@@H](C)CO)C(=O)c2cc(NC(=O)CCC(F)(F)F)ccc2O[C@@H](C)CCCCO[C@@H]1CN(C)S(=O)(=O)c1ccc(Cl)cc1 | inactive: 1.02 |
| Cc1cc(O)c2c(c1)Cc1cccc(O)c1C2=O | inactive: 0.896 |
| NC(=O)c1cc(S(N)(=O)=O)ccc1Cl | inactive: 0.993 |
| C[C@H]1CN([C@@H](C)CO)S(=O)(=O)c2ccc(/C=C/c3ccccc3)cc2O[C@H]1CN(C)C(=O)Nc1cc(F)ccc1F | inactive: 1.01 |
| CO[C@@H]1CN(C)C(=O)c2ccc(NS(=O)(=O)c3ccccc3)cc2OC[C@H](C)N(C(=O)NC(C)C)C[C@@H]1C | inactive: 1.02 |
| Cc1noc(C)c1S(=O)(=O)Nc1ccc2c(c1)C(=O)N([C@@H](C)CO)C[C@H](C)[C@H](CN(C)C(=O)NC1CCCCC1)O2 | inactive: 0.985 |
| C=C1NC(=O)CN1c1ccc(N)cc1 | inactive: 0.979 |
| C[C@@H]1CN([C@@H](C)CO)C(=O)c2cc(NC(=O)Cc3ccccc3)ccc2O[C@@H]1CN(C)Cc1ccc(C(F)(F)F)cc1 | inactive: 0.959 |
| Cc1cccc(NC(=O)C(C)C)c1 | inactive: 1.02 |
| C[C@@H]1CCCCO[C@H](CN(C)Cc2ccc(C(F)(F)F)cc2)[C@@H](C)CN([C@H](C)CO)C(=O)c2cc(NC(=O)CCCN(C)C)ccc2O1 | inactive: 0.949 |
| C[C@@H]1CN([C@@H](C)CO)S(=O)(=O)c2ccc(-c3cncnc3)cc2O[C@@H]1CN(C)C(=O)Cc1cccnc1 | inactive: 0.979 |
| O=C(C[C@@H]1C=C[C@@H](NC(=O)CN2CCOCC2)[C@H](CO)O1)NCc1cccc(F)c1 | inactive: 1.02 |
| Cc1noc(C)c1NC(=O)N(C)C[C@@H]1OCCCC[C@H](C)Oc2ccc(NC(=O)NC3CCCCC3)cc2C(=O)N([C@@H](C)CO)C[C@H]1C | inactive: 1.03 |
| O=C1OC2(c3ccc(O)cc3Oc3cc(O)ccc32)c2ccccc21 | inactive: 1.09 |
| C[C@@H]1CN([C@H](C)CO)C(=O)c2cc(NC(=O)C3CCCCC3)ccc2O[C@@H](C)CCCCO[C@@H]1CN(C)C(=O)C1CCCCC1 | inactive: 0.99 |
| COc1ccc(S(=O)(=O)Nc2ccc3c(c2)CC(=O)N([C@@H](C)CO)C[C@H](C)[C@@H](CN(C)S(=O)(=O)c2ccc(OC)cc2)O3)cc1 | inactive: 0.998 |
| O=C(C[C@H]1CC[C@H]2[C@@H](COC[C@H](O)CN2Cc2cc(F)ccc2F)O1)N[C@H]1CCN(Cc2ccccc2)C1 | inactive: 1 |
| Cc1noc(C)c1NC(=O)N(C)C[C@H]1Oc2c(NC(=O)c3cnccn3)cccc2C(=O)N([C@@H](C)CO)C[C@@H]1C | inactive: 0.995 |

| SMILES | relative growth |
| --- | --- |
| C[C@H](NC(=O)C[C@@H]1C=C[C@@H](NC(=O)CN2CCOCC2)[C@@H](CO)O1)c1ccccc1 | inactive: 1.03 |
| C[C@H](CO)N1C[C@H](C)[C@H](CN(C)S(=O)(=O)c2ccccc2)OCCCC[C@H](C)Oc2ccc(NS(=O)(=O)c3cn(C)cn3)cc2C1=O | inactive: 1.01 |
| CC(C)C#Cc1cnc2c(c1)C(=O)N([C@H](C)CO)C[C@H](C)[C@H](CN(C)C(=O)c1ccc3c(c1)OCO3)O2 | inactive: 0.977 |
| CNC[C@@H]1OCCCC[C@@H](C)Oc2ccc(NC(=O)Nc3cccc4ccccc34)cc2C(=O)N([C@H](C)CO)C[C@H]1C | inactive: 0.993 |
| COc1ccc([Si](C)(C)[C@H]2[C@H](CC(=O)N3Cc4ccccc4C[C@H]3CO)O[C@@]3(C(=O)N(Cc4ccc(N5C(=O)c6cccc7cccc5c67)cc4)c4ccccc43)[C@@H]2C)cc1 | inactive: 1.01 |
| COCCNC(=O)C[C@H]1C[C@H]2c3cc(NC(=O)CN(C)C)ccc3O[C@H]2[C@H](CO)O1 | inactive: 0.973 |
| C[C@@H]1CCCCO[C@@H](CN(C)S(C)(=O)=O)[C@H](C)CN([C@@H](C)CO)C(=O)c2cc(NC(=O)c3ccncc3)ccc2O1 | inactive: 1 |
| O=C(C[C@H]1CC[C@H]2[C@@H](COC[C@@H](O)CN2C(=O)Nc2cccc(F)c2)O1)NCc1ccccc1Cl | inactive: 0.953 |
| C#CCCC(=O)NS(=O)(=O)c1ccccc1 | inactive: 1 |
| C[C@@H]1CN([C@H](C)CO)C(=O)c2cccc(NC(=O)NC3CCCCC3)c2O[C@H]1CN(C)S(=O)(=O)c1cn(C)cn1 | inactive: 0.999 |
| C[C@@H]1CCCCO[C@H](CN(C)C(=O)NC2CCCCC2)[C@H](C)CN([C@@H](C)CO)C(=O)c2cc(NS(=O)(=O)c3ccc(F)cc3)ccc2O1 | inactive: 0.977 |
| CC(C)NC(=O)Nc1ccc2c(c1)CC(=O)N([C@@H](C)CO)C[C@@H](C)[C@@H](CN(C)S(=O)(=O)c1cccs1)O2 | inactive: 1.02 |
| C[C@@H]1CN([C@H](C)CO)C(=O)CCCn2nncc2CO[C@@H]1CN(C)S(=O)(=O)c1ccc(Oc2ccccc2)cc1 | inactive: 1.02 |
| CCOC(=O)C1CCNCC1 | inactive: 0.987 |
| C[C@H](CO)N1C[C@H](C)[C@H](CN(C)C(=O)Nc2ccccc2)Oc2ncc(-c3cccc(C(F)(F)F)c3)cc2C1=O | inactive: 1.01 |
| COc1ccc(S(=O)(=O)Nc2ccc3c(c2)C(=O)N([C@@H](C)CO)C[C@@H](C)[C@@H](CN(C)S(=O)(=O)c2ccc(C)cc2)O3)cc1 | inactive: 1.02 |
| C[C@@H]1CCCCO[C@H](CN(C)C(=O)CCC(F)(F)F)[C@@H](C)CN([C@@H](C)CO)C(=O)c2cc(NC(=O)C3CCCCC3)ccc2O1 | inactive: 1 |
| O=C(c1ccccc1Cl)c1cccnc1-c1nnn(Cc2cc(C(F)(F)F)cc(C(F)(F)F)c2)c1-c1ccncc1 | inactive: 1.01 |
| C[C@@H]1CN([C@H](C)CO)C(=O)CCCn2cc(nn2)CO[C@H]1CN(C)C(=O)Nc1ccc2c(c1)OCO2 | inactive: 0.97 |
| C[C@@H]1CCCCO[C@@H](CN(C)C(=O)Nc2ccccc2)[C@@H](C)CN([C@@H](C)CO)C(=O)c2cc(NC(=O)Cc3ccccc3)ccc2O1 | inactive: 0.991 |
| O=C(C[C@@H]1CC[C@H]2[C@@H](COC[C@@H](O)CN2S(=O)(=O)c2ccc(Cl)cc2)O1)NCCN1CCCCC1 | inactive: 1.03 |

| SMILES | relative growth |
| --- | --- |
| COc1ccc2c3c([nH]c2c1)[C@H](CO)N(C[C@]13CCN(CC1)C(=O)Nc1c(noc1C)C)C(=O)Nc1ccc(cc1)F | inactive: 0.993 |
| CC(C)CC#Cc1ccc2c(c1)O[C@H](CN(C)C(=O)Cc1ccncc1)[C@H](C)CN([C@@H](C)CO)S2(=O)=O | inactive: 1.02 |
| CC(C)(C)c1cccc(N)c1 | inactive: 1.01 |
| CCCN(C)C[C@@H]1Oc2cc(C#Cc3ccccc3OC)ccc2S(=O)(=O)N([C@H](C)CO)C[C@@H]1C | inactive: 0.999 |
| C[C@@H]1CN([C@@H](C)CO)C(=O)CCCn2nncc2CO[C@H]1CN(C)S(=O)(=O)c1ccc2ccccc2c1 | inactive: 1.03 |
| C[C@H]1CN([C@@H](C)CO)C(=O)Cc2cc(N(C)C)ccc2O[C@@H]1CN(C)C(=O)Nc1ccc2c(c1)OCO2 | inactive: 1 |
| COc1ccc(S(=O)(=O)N(C)C[C@@H]2Oc3ccc(NS(=O)(=O)c4cccs4)cc3CC(=O)N([C@H](C)CO)C[C@H]2C)cc1 | inactive: 1 |
| C[C@@H]1CN([C@@H](C)CO)C(=O)c2cc(NS(C)(=O)=O)ccc2O[C@H]1CN(C)C(=O)Nc1ccccc1 | inactive: 0.97 |
| N[C@@H](CSCc1cccc(Br)c1)C(=O)O | inactive: 1.02 |
| C[C@H]1CN([C@@H](C)CO)C(=O)c2cccc(NC(=O)Nc3ccccc3)c2O[C@H]1CN(C)Cc1ccc(-c2ccccc2)cc1 | inactive: 1.01 |
| COc1ccc(NC(=O)Nc2ccc3c(c2)C(=O)N([C@@H](C)CO)C[C@@H](C)[C@@H](CN(C)C(=O)NC(C)C)OCCCC[C@H](C)O3)cc1 | inactive: 0.994 |
| COc1ccc(CN(C)C[C@H]2Oc3ccc(NC(=O)Cn4cnnn4)cc3C(=O)N([C@H](C)CO)C[C@@H]2C)cc1 | inactive: 0.899 |
| C[C@@H]1CCCCO[C@@H](CN(C)C(=O)CCCN(C)C)[C@@H](C)CN([C@H](C)CO)C(=O)c2cc(NC(=O)Nc3cccc4ccccc34)ccc2O1 | inactive: 1.01 |
| C[C@@H]1CCCCO[C@@H](CN(C)C(=O)c2ccncc2)[C@H](C)CN([C@@H](C)CO)C(=O)c2cc(NS(=O)(=O)c3ccc(Cl)cc3)ccc2O1 | inactive: 1 |
| COc1ccc(NC(=O)N(C)C[C@H]2OCCCC[C@@H](C)Oc3ccc(NC(=O)Nc4ccccc4)cc3C(=O)N([C@@H](C)CO)C[C@H]2C)cc1 | inactive: 1.04 |
| C[C@@H]1CN([C@H](C)CO)C(=O)c2cccc(NS(=O)(=O)c3ccccc3)c2O[C@@H]1CN(C)Cc1ccncc1 | inactive: 1.01 |
| C[C@@H]1CN([C@H](C)CO)C(=O)c2cc(NC(=O)CCC(F)(F)F)ccc2O[C@@H](C)CCCCO[C@H]1CN(C)Cc1ccccc1 | inactive: 1.01 |
| C[C@H](CO)N1C[C@H](C)[C@@H](CN(C)S(=O)(=O)c2ccc(F)cc2)Oc2ncc(C#CC3(O)CCCC3)cc2C1=O | inactive: 0.999 |
| C[C@@H]1CN([C@@H](C)CO)C(=O)c2cccc(NS(=O)(=O)c3ccccc3)c2O[C@H]1CN(C)S(=O)(=O)c1ccc(F)cc1 | inactive: 0.99 |
